Laboratory results taken from PubChem BioAssay (NCATS).
Inconclusive means that the source gave no clear call. Such entries were picked first, then a sample of the others. Potencies beside an inconclusive call are fits to weak or partial responses and may not hold up. Active and inactive are the calls of the source. Calls come from the whole dose curve; as a rule, active = well fitted curve in the direction sought with a large enough effect; inconclusive = small, poorly fitted or top-dose-only effect, or another doubt; inactive = no such curve, though single readings can be large; an effect the other way counts as inactive or inconclusive.

Key:
[1] = qHTS of pediatric cancer cell lines to identify multiple opportunities for drug repurposing: Primary screen for DAOY cells (AID 1347090); settings: DAOY medulloblastoma viability, CellTiter-Glo luminescence, 48 h; activity change, negative = cytotoxic: at 46 µM (top of the series); note: nearly all actives have a fitted effect of over 55% in size
Outline: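 Cell viability, CellTiter-Glo luminescence; 500-1,000 cells/well, 8- or 11-point titration, 48 h compound exposure at 37 degrees C, 5% CO2. Controls: DMSO neutral, bortezomib 2.3 µM final as positive.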

[2] = qHTS of pediatric cancer cell lines to identify multiple opportunities for drug repurposing: Primary screen for U-2 OS cells (AID 1347096); note: nearly all actives have a fitted effect of over 50% in size
Outline: (§1)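 Cells (500-1,000/well) rested 5 h, then received compounds for 48 h; metabolically active cells were measured by CellTiter-Glo luminescence. Final concentrations spanned up to 46 µM (MIPE, 11-point) or 0.59 nM-46 µM (NPC, 8-point) in primary screens, 11-point in follow-ups.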

[3] = qHTS of pediatric cancer cell lines to identify multiple opportunities for drug repurposing: Primary screen for Saos-2 cells (AID 1347097); note: nearly all actives have a fitted effect of over 40% in size
Outline: (§2)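 Readout: CellTiter-Glo luminescence, 48 h treatment. Controls DMSO (neutral) and bortezomib 2.3 µM final (positive). Potency and efficacy taken from primary-screen concentration-response curves.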

[4] = qHTS of pediatric cancer cell lines to identify multiple opportunities for drug repurposing: Primary screen for SK-N-SH cells (AID 1347098); note: nearly all actives have a fitted effect of over 65% in size
Outline: as §1

[5] = qHTS of pediatric cancer cell lines to identify multiple opportunities for drug repurposing: Primary screen for Rh18 cells (AID 1347102); note: nearly all actives have a fitted effect of over 65% in size
Outline: as §1

[6] = qHTS of pediatric cancer cell lines to identify multiple opportunities for drug repurposing: Primary screen for MG 63 (6-TG R) cells (AID 1347105); settings: MG 63 (6-TG R) viability, CellTiter-Glo, 48 h; activity change, negative = cytotoxic: at 46 µM (top of the series); note: nearly all actives have a fitted effect of over 50% in size
Outline: as §2

[7] = qHTS of pediatric cancer cell lines to identify multiple opportunities for drug repurposing: Primary screen for control Hh wild type fibroblast cells (AID 1347106); note: nearly all actives have a fitted effect of over 55% in size
Outline: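 Viability after 48 h compound treatment at 37C, 500-1,000 cells/well, read as ATP luminescence with CellTiter-Glo. Primary screens used 11-point (MIPE, 0.78 nM-46 µM) or 8-point (NPC, 0.59 nM-46 µM) final concentrations; follow-up screens used 11-point dilutions.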

[8] = qHTS of pediatric cancer cell lines to identify multiple opportunities for drug repurposing: Primary screen for Rh41 cells (AID 1347108); note: nearly all actives have a fitted effect of over 70% in size
Outline: as §2

[9] = qHTS of pediatric cancer cell lines to identify multiple opportunities for drug repurposing: Confirmatory screen for NB1643 cells (AID 1347109); settings: NB1643 neuroblastoma cell viability; activity change, negative = cytotoxic: at 45.9 µM (top of the series); note: nearly all actives have a fitted effect of over 45% in size
Outline: as §1

[10] = qHTS of pediatric cancer cell lines to identify multiple opportunities for drug repurposing: Primary screen for NB1643 cells (AID 1347099); note: nearly all actives have a fitted effect of over 50% in size
Outline: as §2

[11] = qHTS of pediatric cancer cell lines to identify multiple opportunities for drug repurposing: Primary screen for RD cells (AID 1347104); note: nearly all actives have a fitted effect of over 55% in size
Outline: as §2

[12] = qHTS of pediatric cancer cell lines to identify multiple opportunities for drug repurposing: Primary screen for BT-37 cells (AID 1347094)
Outline: as §2

[13] = qHTS of pediatric cancer cell lines to identify multiple opportunities for drug repurposing: Primary screen for LAN-5 cells (AID 1347100); settings: LAN-5 neuroblastoma viability, CellTiter-Glo luminescence, 48 h; activity change, negative = cytotoxic: at 46 µM (top of the series)
Outline: as §1

[14] = qHTS of pediatric cancer cell lines to identify multiple opportunities for drug repurposing: Primary screen for BT-12 cells (AID 1347101); note: nearly all actives have a fitted effect of over 25% in size
Outline: as §1

[15] = qHTS of pediatric cancer cell lines to identify multiple opportunities for drug repurposing: Primary screen for OHS-50 cells (AID 1347103); note: nearly all actives have a fitted effect of over 40% in size
Outline: as §1

[16] = qHTS of pediatric cancer cell lines to identify multiple opportunities for drug repurposing: Primary screen for Rh30 cells (AID 1347107); note: nearly all actives have a fitted effect of over 75% in size
Outline: as §1

[17] = qHTS of pediatric cancer cell lines to identify multiple opportunities for drug repurposing: Primary screen for NB-EBc1 cells (AID 1347095)
Outline: as §2

Measured: Potency
Potency is the fitted concentration of half-maximal effect; tags give direction and shape of the fitted curve.

O=C(NC1CCNCC1)c1[nH]ncc1NC(=O)c1c(Cl)cccc1Cl
active: [1] 1.18 µM | [3] 1.66 µM | [4] 1.71 µM | [6] 3.72 µM | [8] 0.743 µM
inconclusive: [2] 2.96 µM [cytotoxic, full curve] | [5] 0.935 µM [cytotoxic, full curve] | [7] 0.833 µM [cytotoxic, full curve] | [9] 1.2 µM [cytotoxic, full curve]

O=C(NCCS(=O)(=O)c1ccc(C(F)(F)F)cn1)c1ccc(Cl)cc1
inactive: [2] | [10] | [11]
inconclusive: [1] 18.7 µM [cytotoxic, single point] | [4] 38.3 µM [cytotoxic, single point] | [8] 7.43 µM [cytotoxic, partial curve, poor fit]

CC1(C)CC(=O)c2c(C(F)(F)F)nn(-c3ccc(C(N)=O)c(NC4CCC(O)CC4)c3)c2C1 (stereo not given)
inconclusive: [1] 0.187 µM [cytotoxic, full curve] | [12] 0.172 µM [cytotoxic, full curve] | [3] 0.148 µM [cytotoxic, full curve, poor fit] | [10] 0.0372 µM [cytotoxic, full curve, poor fit] | [6] 0.235 µM [cytotoxic, full curve] | [7] 0.296 µM [cytotoxic, full curve, poor fit]
active: [13] 0.148 µM | [11] 0.0743 µM | [8] 0.296 µM

C=C1C(=CC=C2CCCC3(C)[C@@H]([C@H](C)C=CC=CC(O)(CC)CC)CC[C@@H]23)C[C@@H](O)C[C@@H]1O (stereo not given in full)
inconclusive: [12] 21.7 µM [cytotoxic, partial curve] | [2] 18.7 µM [cytotoxic, single point] | [3] 18.7 µM [cytotoxic, partial curve] | [4] 4.82 µM [cytotoxic, full curve] | [14] 24.3 µM [cytotoxic, partial curve]
active: [1] 23.5 µM | [13] 14.8 µM | [15] 24.3 µM | [8] 18.7 µM

CN1CCCN(C(=O)c2cccc(-c3ccc(C=C4C(=O)Nc5ccc(Cl)cc54)o3)c2)CC1
active: [11] 33.2 µM | [16] 18.7 µM
inconclusive: [1] 29.6 µM [cytotoxic, single point] | [2] 37.2 µM [cytotoxic, single point] | [4] 7.64 µM [cytotoxic, partial curve] | [6] 29.6 µM [cytotoxic, single point]

Cc1cccc(-c2[nH]c(C(C)(C)C)nc2-c2ccc3c(c2)OCO3)n1
active: [12] 6.11 µM | [3] 0.418 µM | [4] 30.4 µM | [10] 11.8 µM | [15] 2.73 µM | [8] 1.18 µM
inactive: [5]
inconclusive: [1] 7.43 µM [cytotoxic, full curve] | [17] 9.35 µM [cytotoxic, partial curve] | [2] 4.69 µM [cytotoxic, full curve, poor fit] | [7] 26.4 µM [cytotoxic, single point] | [9] 23.3 µM [cytotoxic, single point]

Cc1c(C(=O)Nc2ccc(N3C[C@@H](C)O[C@@H](C)C3)nc2)cccc1-c1ccc(OC(F)(F)F)cc1
inconclusive: [1] 18.7 µM [cytotoxic, partial curve] | [12] 24.3 µM [cytotoxic, partial curve] | [2] 9.35 µM [cytotoxic, partial curve, poor fit] | [10] 13.2 µM [cytotoxic, partial curve] | [5] 18.7 µM [cytotoxic, partial curve] | [11] 1.87 µM [cytotoxic, full curve] | [16] 11.8 µM [cytotoxic, partial curve] | [8] 18.7 µM [cytotoxic, partial curve]
active: [3] 18.7 µM | [4] 3.41 µM | [14] 13.7 µM | [6] 23.5 µM

COc1ccc2c(c1OC)C(=O)OC2[C@H]1c2c(cc3c(c2OC)OCO3)CCN1C (stereo not given in full)
active: [1] 0.469 µM | [3] 0.235 µM | [11] 0.372 µM
inconclusive: [2] 1.48 µM [cytotoxic, full curve, poor fit] | [4] 0.171 µM [cytotoxic, full curve] | [13] 0.0935 µM [cytotoxic, full curve] | [6] 0.118 µM [cytotoxic, full curve] | [7] 0.469 µM [cytotoxic, full curve, poor fit] | [16] 3.32 µM [cytotoxic, partial curve]
inactive: [9]

CC(C)Oc1ccc(C(=O)N[C@H](CNC(=O)CN(C)C)Cc2ccc(-c3cn4cccc([C@H](C)O)c4n3)cc2)cc1Cl
active: [14] 1.93 µM | [15] 2.43 µM | [8] 1.18 µM
inconclusive: [1] 0.296 µM [cytotoxic, full curve] | [12] 0.968 µM [cytotoxic, full curve] | [5] 29.6 µM [cytotoxic, single point] | [11] 3.32 µM [cytotoxic, partial curve, poor fit] | [6] 0.296 µM [cytotoxic, full curve] | [16] 6.62 µM [cytotoxic, partial curve]

O=c1[nH]c(-c2ccc(C(F)(F)F)cc2)nc2c1CSCC2
inconclusive: [1] 3.72 µM [cytotoxic, full curve, poor fit] | [12] 8.63 µM [cytotoxic, partial curve] | [17] 2.96 µM [cytotoxic, partial curve] | [3] 14.8 µM [cytotoxic, partial curve] | [4] 21.5 µM [cytotoxic, partial curve] | [10] 5.9 µM [cytotoxic, partial curve] | [14] 17.2 µM [cytotoxic, partial curve] | [15] 8.63 µM [cytotoxic, partial curve] | [11] 14.8 µM [cytotoxic, partial curve, poor fit] | [6] 0.743 µM [cytotoxic, full curve] | [16] 11.8 µM [cytotoxic, partial curve] | [8] 14.8 µM [cytotoxic, partial curve]

Nc1ccc(C(=O)c2cc3c(ccc4ccccc43)[nH]2)cc1
inconclusive: [1] 3.72 µM [cytotoxic, full curve] | [6] 2.35 µM [cytotoxic, full curve]
active: [17] 1.66 µM | [3] 2.35 µM | [4] 7.64 µM | [10] 16.6 µM | [15] 10.9 µM

CC(C)(C)OC(=O)Nc1ccc(-c2cc(C(=O)NCCCCCCC(=O)NO)no2)cc1
active: [1] 4.69 µM | [12] 5.44 µM | [3] 2.35 µM | [4] 6.81 µM | [5] 2.35 µM | [11] 5.26 µM | [16] 7.43 µM | [8] 3.72 µM
inconclusive: [7] 16.6 µM [cytotoxic, partial curve]

CC1(C)CC(=O)c2c(C(F)(F)F)nn(-c3ccc(C(N)=O)c(NC4CCC(OC(=O)CN)CC4)c3)c2C1 (stereo not given)
inconclusive: [1] 0.469 µM [cytotoxic, full curve] | [12] 0.243 µM [cytotoxic, full curve] | [2] 0.296 µM [cytotoxic, full curve, poor fit] | [14] 0.385 µM [cytotoxic, full curve] | [6] 0.469 µM [cytotoxic, full curve] | [7] 1.05 µM [cytotoxic, full curve] | [16] 0.935 µM [cytotoxic, full curve]
active: [3] 0.264 µM | [8] 0.372 µM

COc1ccc(-c2ccc3ncc4c(c3c2)n(-c2ccc(N3CCNCC3)c(C(F)(F)F)c2)c(=O)n4C)cn1
active: [1] 0.59 µM | [2] 7.43 µM | [4] 0.0857 µM | [14] 15.3 µM | [11] 0.743 µM | [7] 2.09 µM | [16] 1.87 µM | [8] 0.0235 µM | [9] 1.04 µM

COc1ccc(C(C)=O)c(O)c1
inconclusive: [12] 6.11 µM [cytotoxic, partial curve] | [15] 10.9 µM [cytotoxic, full curve] | [8] 3.32 µM [cytotoxic, full curve] | [9] 0.0147 µM [rising, full curve, poor fit]
active: [1] 1.87 µM | [10] 5.26 µM
inactive: [6]
